Experimental data taken from publication PMC3884069 (Cellular and molecular life sciences : CMLS, 2012).

Target: the molecule itself
Experiment: non-reducing SDS-PAGE and western blot

B1: HLA-G5 (soluble HLA-G isoform, α1–α2–α3 domains) (natural protein)
MHC heavy: not shown
With B1 the “stoichiometry N” value was 2.
